The supplement of paper PMC3334620
Over roughly 33,000 sequences, “E-score (-0.5 to 0.5)” has its median near -0.011; the highest 2% begin near 0.28. The list shows a part of the results.

target: T1, Gcr1 (UniProt P07261); experiment: PBM E-score (8-mer binding enrichment) (E-score (-0.5 to 0.5)); higher = stronger / more preferred TF binding; most listed sequences are background and not binding sites; details: protein concentration: 100 nM; construct: GST-full length
T1 sequence: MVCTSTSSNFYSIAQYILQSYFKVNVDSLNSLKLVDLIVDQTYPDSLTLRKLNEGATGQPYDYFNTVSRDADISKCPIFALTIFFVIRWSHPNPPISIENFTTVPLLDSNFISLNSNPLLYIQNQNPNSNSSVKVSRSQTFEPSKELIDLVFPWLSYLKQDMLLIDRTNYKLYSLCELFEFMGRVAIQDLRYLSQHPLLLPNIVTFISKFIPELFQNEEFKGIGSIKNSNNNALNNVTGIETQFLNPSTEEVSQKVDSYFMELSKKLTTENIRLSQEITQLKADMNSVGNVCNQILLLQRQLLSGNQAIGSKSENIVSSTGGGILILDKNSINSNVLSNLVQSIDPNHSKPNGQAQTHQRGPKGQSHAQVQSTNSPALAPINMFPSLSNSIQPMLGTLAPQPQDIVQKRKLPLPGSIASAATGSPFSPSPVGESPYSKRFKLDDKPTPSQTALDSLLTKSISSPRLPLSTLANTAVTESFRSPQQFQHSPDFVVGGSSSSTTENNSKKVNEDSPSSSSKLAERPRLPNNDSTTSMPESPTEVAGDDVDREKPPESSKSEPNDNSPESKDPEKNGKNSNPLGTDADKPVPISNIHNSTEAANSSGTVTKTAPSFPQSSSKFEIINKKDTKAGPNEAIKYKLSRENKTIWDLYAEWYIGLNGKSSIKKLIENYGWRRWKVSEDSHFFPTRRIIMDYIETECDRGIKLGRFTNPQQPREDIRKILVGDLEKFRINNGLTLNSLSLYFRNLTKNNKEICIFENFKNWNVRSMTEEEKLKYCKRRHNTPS
How it was run: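 Full-length yeast transcription factors or their DNA-binding domains, GST-tagged and expressed with PURExpress, were applied at about 100-200 nM to universal all-10-mer Agilent arrays. These arrays had been made double-stranded by primer extension on fresh or once-stripped slides. Detection used fluorescent anti-GST, normalisation used masliner, and E-scores for ungapped eight-base words pooled with reverse complements came from the Universal PBM Analysis Suite.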

Sequence	PBM E-score
CTTGCCGA	-0.146
CCGCACCG	-0.181
ATTAGCTC	0.00193
ATAACCTA	0.109
ACCTCAGC	-0.203
ACATTGAA	0.184
ATCTAGCC	0.0906
CAGACTCG	-0.205
ACACGCTC	-0.05
GGGGCGCA	-0.123
ATGTCATC	0.197
CACGAAGA	-0.098
CCGGTACA	0.0516
CAACAGCC	-0.0244
ACTGATGG	-0.069
ACGTAGTA	-0.105
ACGGGCGA	-0.096
AGTGCCAG	0.015
ACAGGTGC	0.16
CGGGGACC	0.233
ATTCCGAG	0.122
AAGCATTC	-0.152
AGTGTATG	0.0598
AGGCGTCA	-0.194

Sequence	PBM E-score
ACGCTTAG	-0.164
CAGGTTCG	-0.0191
AATCGTCT	0.099
AGACTACA	-0.0339
ATTTATGC	0.0089
GACAAAAC	-0.0151
TTAAGTAA	0.0602
CTAAGGAC	-0.0792
ATTAGCGA	0.0317
ATTACATC	0.0535
ACTTGTCC	-0.149
CTAAGGTA	-0.014
AATACGTC	0.00419
CTTACGCA	0.111
ATATTCTG	0.146
TCATACAA	0.0816
CCAGCTCG	-0.21
CTATTGAA	0.112
CGGAGGCC	0.163
CACTGGCA	0.13
AGGGGATC	0.0483
AGCGACCC	-0.264
ATTGTCAG	-0.0749
GTCTGCAA	-0.0339

Sequence	PBM E-score
TAGTGACA	0.0143
GGTAGCTA	0.0744
AGGTATAT	-0.00061
ACAAGCCT	-0.193
AGATAAGG	-0.0257
AGCCGCAG	0.0493
ACTGTACC	-0.0819
GAGAGACA	-0.0427
CGTAATCC	0.0629
ACTTCGAA	0.0115
ATTGACGC	0.0548
AGAGTCAT	-0.0622
GCGCGTTA	-0.00066
AGCGTCAA	0.0252
ATCATCGG	-0.11
ATAACAAT	-0.179
TAAGGGGA	0.099
ACCCCCAC	-0.176
AGCGGGAT	0.147
AAGGACCA	-0.108
ATATCGCA	-0.182
ATAAAATG	0.0848
AATATTAC	0.169
ACTCTGGC	0.0215

Sequence	PBM E-score
CGTGGTCA	-0.107
CGGATAAC	0.0482
GAACCGAC	0.0921
CAGTATCC	0.1
CTCCCTAC	0.0639
GGGCGCAC	-0.138
GGAGACTA	0.0426
ATTGAGTA	-0.0389
CGAAATGA	-0.0527
CAGAAGGC	-0.141
CCGGGAGG	-0.0354
AGACAGAA	0.183
CTGTTGGA	0.103
GATATGGC	-0.223
ATTTCATG	-0.0959
CGGTATTA	0.0762
GAACGTCA	-0.137
GGAAGAGA	-0.0867
CCGCCAGC	-0.0126
ACACGTGT	-0.0595
AGGATGAC	-0.121
ATGGTCGA	-0.147
ACAGATGG	-0.135
ATGAGATG	-0.0573

Sequence	PBM E-score
ACATCACG	-0.087
ACCGCCCC	0.135
TACACTAA	-0.0726
GCTATATA	0.0427
CGATCAAC	-0.0794
CCCCGCTC	-0.0964
ACGGTCCA	-0.23
GTCTGCAC	0.0345
TAGCTGAA	0.0442
AAAGAGCC	-0.173
ATGGCCTG	-0.242
CTTTGCTC	0.0865
AGCTTAAG	-0.243
ACCGGACT	-0.0693
CAGCGATG	-0.226
GAGTTGAC	-0.0242
GAGCCAAC	0.068
CAGTCCTA	-0.183
AGTTCCCG	0.00184
AGCAAGAA	-0.176
AACTAGGC	0.122
CGCTTCCG	0.291
GGACACGA	0.0493
GGGTTTGA	0.0551

Sequence	PBM E-score
ATTTCGGA	0.285
GTGTGTCA	-0.0461
AGGGCTGC	0.046
GAAACCCC	-0.171
CATCAGAA	0.0319
ATTAACGA	-0.0803
AACTGCGG	-0.0471
CGACAACG	0.116
AAGTTTGG	0.179
ATCTTACG	0.0919
CCGCCGAG	0.0244
AATAGAGG	0.297
CCATCGTA	-0.145
ATTCGGGA	0.231
AATTCTTA	0.0587
CCCGGGAA	-0.0106
ACCGCAAA	0.0408
ATTATCTG	0.0198
CTGGAGGC	0.201
ATTGCGGC	-0.131
AGTTTATC	-0.00932
CTTTGCCA	-0.302
AACATGTC	-0.188
GACAGACA	-0.0415

Sequence	PBM E-score
CCGTCCGA	-0.062
ACACGTCC	-0.207
GGTACTTA	0.221
ACCTTTGC	-0.122
ATAGAGTC	-0.00255
CCAGTGGG	-0.0305
GAACGAAA	-0.13
CATTGACG	-0.0781
CCGTAGCA	0.0464
AGGTTAAC	-0.299
AAATCGCT	-0.183
CAGTAGCC	-0.0167
CGATACAG	0.231
CCAATTTC	0.247
AGAGTATG	-0.153
CCGGGAAG	0.0216
AAGATCGC	-0.23
CCCCAAAG	0.146
GGAAATCA	-0.0851
AGGTGCAA	-0.204
GTCGAGAA	-0.0258
GTGAAGAA	0.0472
ATATCTCC	0.0918
ATGGACAG	0.0052

Sequence	PBM E-score
GCAGTACA	-0.192
TACTTGAA	-0.0673
AGACCAAT	-0.019
AGGGCGGG	0.147
ATATGTTG	0.0441
AGCGTACT	-0.104
AAGGCCAG	0.0173
CTACCAAG	0.0245
CAACGAAG	-0.149
CGAAGTAC	-0.022
CATCTTGG	-0.102
CATCGGCA	-0.113
AGTGATAT	-0.131
TGAGAACA	-0.0354
GAAGGGGC	-0.00738
ACACACAC	-0.0429
CGAGAATA	0.0782
GGATTACA	0.18
ATAAAGAC	-0.134
ATTAAAAG	0.239
AAGCGAGT	0.0516
ACTTATAG	0.088
GTCGCGTA	-0.0557
